The list shows a part of the results.
Each sequence was assayed on PfHDP1 homeodomain (GST-tagged) (assay: gcPBM binding intensity (ln(normalized median fluorescence intensity)); higher = stronger DNA binding).
Method in brief: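 For binding intensity, the highest Masliner-normalised natural-log median intensity across replicate spots of either probe orientation was taken. Protein bound to the array was stained with Alexa488 anti-GST antibody and scanned at 488 nm. The protein, GST-tagged P. falciparum DNA-binding domains from E. coli at about 25 μg on average, had been applied for 1 h to an Agilent 4 × 180k array of primer-extended double-stranded 36-bp intergenic genomic probes and negative controls.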
With “TTATTTCTAACATGATGTACTTTTATATTATATAAT [XGTACX_site3574]” the “gcPBM binding intensity (ln)” value was 6.67. For “TTTTTTTTATATATCTGTACATATATATATATATAT [XGTACX_site8280]”, the “gcPBM binding intensity (ln)” value was 9.15. “TATTTTCAAAATGTTGTACACACAAAAAAAAAAAAA [CACACA_site8437]” was tested, and the “gcPBM binding intensity (ln)” value was 6.57. In the case of “ATATACTTTTCAATGTGTACTTATGAATATATATGT [XGTACX_site7972]”, the “gcPBM binding intensity (ln)” value is reported as 6.43. For “ATTATTACTATATGTGTACACATCAACTGGTTTGAT [CACACA_site5563]”, the “gcPBM binding intensity (ln)” value was 7.39. With “TTGGTAAATATATTTTGAATATAAGAAATATAGACG [CACACA_negctrl_site1634]” the “gcPBM binding intensity (ln)” value was 6.57. “AGTAGCGGCGGTATCATGCACACGTATAGATTGTAA [CACACA_site1587]” was tested, and the “gcPBM binding intensity (ln)” value was 7.94. In the case of “CCACGTATACGATGCACACGTATGCTTTATATATAG [CACACA_site4108]”, the “gcPBM binding intensity (ln)” value is reported as 8.58. For “TTGTTTATATATATATGTACATATTTTAAGGCATCC [XGTACX_site6976]”, the “gcPBM binding intensity (ln)” value was 6.68. In the case of “GTTGAAAAAAATATATGTACGTATATATGTATGTAT [XGTACX_site8201]”, the “gcPBM binding intensity (ln)” value is reported as 6.91. For “ATTAAATCCGCACGCACACACACATATTAAGAAAAA [CACACA_site6062]”, the “gcPBM binding intensity (ln)” value was 7.6. With “TAATAAATTCATAATTGTACATTGAAGTATTATGCA [XGTACX_site5121]” the “gcPBM binding intensity (ln)” value was 6.23. In the case of “TTTTTTTATTTTGTATGTACATATCATTTGATATTC [XGTACX_site8449]”, the “gcPBM binding intensity (ln)” value is reported as 6.9. For “TATATATATAACAGAATGCACTTTATATGTTCATAT [GTGCAC_site9880]”, the “gcPBM binding intensity (ln)” value was 8.32. With “TATACGTATACCTATACACACATATATTTATTTATA [CACACA_site6716]” the “gcPBM binding intensity (ln)” value was 6.77. For “AAAAAATACAGACACACACACACACGCATATAAATA [CACACA_site7644]”, the “gcPBM binding intensity (ln)” value was 6.86. “GATATCCTTATATTTGCACACACACCCAATAAAATG [CACACA_site1028]” was tested, and the “gcPBM binding intensity (ln)” value was 9.87. In the case of “GCAAAGCACAAATATGCATGTAGATATAGAATAATG [TGCATGCA_site382]”, the “gcPBM binding intensity (ln)” value is reported as 6.77. “AACCCAAAATAATTATGTACATATTTTTAAATATAT [XGTACX_site6487]” was tested, and the “gcPBM binding intensity (ln)” value was 6.78. “ATAATCCTTGGACACACACACACACTAGTAAATAAA [CACACA_site4423]” was tested, and the “gcPBM binding intensity (ln)” value was 6.96. With “TTTGTGTATATAACAGTGCAATATTATAAATATAAA [GTGCAC_site9750]” the “gcPBM binding intensity (ln)” value was 9.76. In the case of “AAAAAAGAAAAAAAGTGTACAATATTTATTACATAT [XGTACX_site2277]”, the “gcPBM binding intensity (ln)” value is reported as 6.25. For “TAATTATTTTTATATTGTACAATATGTAAATATATA [XGTACX_site592]”, the “gcPBM binding intensity (ln)” value was 6.39. In the case of “AATTAAAAAAAAAAAAAAAAAAAAAAATGAAAAAAA [CACACA_negctrl_site1073]”, the “gcPBM binding intensity (ln)” value is reported as 5.6. “ATAAATAAATAAATCTGTACATATGTATATGTATAT [XGTACX_site4537]” was tested, and the “gcPBM binding intensity (ln)” value was 6.14. “AAAAAAAAAAAAAAAAGTACATACAACATTATGAAA [XGTACX_site207]” was tested, and the “gcPBM binding intensity (ln)” value was 6.51. In the case of “TTTTTTGAATTTAAAAGTACAGGCTTTTACCAAATA [XGTACX_site1356]”, the “gcPBM binding intensity (ln)” value is reported as 5.92. With “CTTAAAGGGAAAAATACACACATATAAATATTATGT [CACACA_site2225]” the “gcPBM binding intensity (ln)” value was 6.19. “ACTTAATTTTTTTTATGTACTTATTTAAAAAATTTT [XGTACX_site2712]” was tested, and the “gcPBM binding intensity (ln)” value was 6.66. “TTAGTAGTATTATGTAGTACATAATTATCATATCAT [XGTACX_site817]” was tested, and the “gcPBM binding intensity (ln)” value was 6.48. “AACACGCGCAGACACACACACACACGCACATATATA [CACACA_site7104]” was tested, and the “gcPBM binding intensity (ln)” value was 7.43. “TTTTTTTTCTTTTTTTTAAGAAATAAATAAATAATT [XGTACX_negctrl_site137]” was tested, and the “gcPBM binding intensity (ln)” value was 5.55. “CATTTCTATATAAGCACACACGTGGAATTTTTTTTT [CACACA_site5537]” was tested, and the “gcPBM binding intensity (ln)” value was 6.82. With “TCATATTATAAATAAATAAATAAATATATATATATA [CACACA_negctrl_site577]” the “gcPBM binding intensity (ln)” value was 8.76. For “AAATCGTAATATATTTGTACTTATTTGAAAAATCCA [XGTACX_site8141]”, the “gcPBM binding intensity (ln)” value was 6.11. “ATTATTTGAACAACAAAAAAAAAGAAAAGAAAAGAA [CACACA_negctrl_site1031]” was tested, and the “gcPBM binding intensity (ln)” value was 6.37. For “TTTTTTCTTTTTATGTGTACTTATTTTATTTAATAA [XGTACX_site1080]”, the “gcPBM binding intensity (ln)” value was 6.54. With “TATATTTCATTATATTGTACAAAATATATATATTAT [XGTACX_site4644]” the “gcPBM binding intensity (ln)” value was 6.59. “ATGTATATAAATATACGTACATAAATATAAGTATAG [XGTACX_site7155]” was tested, and the “gcPBM binding intensity (ln)” value was 6.26. “ATACATGAATAAATATGTACACATATAAAAACATAT [XGTACX_site2740]” was tested, and the “gcPBM binding intensity (ln)” value was 6.74. “CATTATATATATTACTAAAAATTTTACCCCTTAGCT [CACACA_negctrl_site302]” was tested, and the “gcPBM binding intensity (ln)” value was 6.59. With “TAAATTATAAATTGCACACATATTTTTATATTTATA [CACACA_site2976]” the “gcPBM binding intensity (ln)” value was 10.2. For “ATATTTTTAGATTCAGAAAAAAGATTCAACTTACTC [CACACA_negctrl_site1357]”, the “gcPBM binding intensity (ln)” value was 6.07. “TATTTCATATGAAGAAGTACTATTAATAATTTCCTT [XGTACX_site6587]” was tested, and the “gcPBM binding intensity (ln)” value was 6.12. In the case of “ATATATGCATATATATGTACATATATATATATATAT [XGTACX_site7403]”, the “gcPBM binding intensity (ln)” value is reported as 9.33. With “AATAAATAAAAAATTACACACATATATATAAATATA [CACACA_site3434]” the “gcPBM binding intensity (ln)” value was 6.23. For “ATACGAATAAATTTCGCATGCAGCATATATATCAAT [TGCATGCA_site612]”, the “gcPBM binding intensity (ln)” value was 6.5. With “TGTACAAATATGTTGAAAATAAAATTTCAATATATT [XGTACX_negctrl_site13]” the “gcPBM binding intensity (ln)” value was 5.88. With “AACGAAAATAAGAAAAGTACAAAAAATACCAAATAA [XGTACX_site6171]” the “gcPBM binding intensity (ln)” value was 6.55. With “TTCTTTTTTCGACACACACACACAAGAAGATATATA [CACACA_site7456]” the “gcPBM binding intensity (ln)” value was 7.11. For “ATATATATATATAATACACACTTATGAAATGTCTAA [CACACA_site5077]”, the “gcPBM binding intensity (ln)” value was 8.79. “TTAATACATACATTCACACACACTAATTGTATATTT [CACACA_site9362]” was tested, and the “gcPBM binding intensity (ln)” value was 6.85. In the case of “AAAAAAAAACAGAAAACACACAAATTATCTTAGAAT [CACACA_site309]”, the “gcPBM binding intensity (ln)” value is reported as 6.52. In the case of TTTAATTTTTAATCAGTGCAATATTATATAATATAT, the “gcPBM binding intensity (ln)” value is reported as 9.62. With “TACAATAATGATTGTTGTACATTATTGATATTTAAA [XGTACX_site2940]” the “gcPBM binding intensity (ln)” value was 5.99. “AATAATTCATCATATGCACACACAATACCAAAATGT [CACACA_site7945]” was tested, and the “gcPBM binding intensity (ln)” value was 9.26.
